# Source: the supplement of paper PMC8728848
# The other results are listed elsewhere or left out.
# B1: HMGB1 (Homo sapiens), P09429 (protein)
# chain: MGKGDPKKPRGKMSSYAFFVQTCREEHKKKHPDASVNFSEFSKKCSERWKTMSAKEKGKFEDMAKADKARYEREMKTYIPPKGETKKKFKDPNAPKRPPSAFFLFCSEYRPKIKGEHPGLSIGDVAKKLGEMWNNTAADDKQPYEKKAAKLKEKYEKDIAAYRAKGKPDAAKKGVVKAEKSKKKKEEEEDEEDEEDEEEEEDEEDEDEEEDDDDE
# Columns and labels:
# Experiment in all cases: glycan array binding signal (z-score within array); higher = stronger binding
# Details in all cases: glycan notation: IUPAC condensed, linker removed
# [1] = target: Fuc(a1-2)Gal
# How it was run: (§1)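 Arrays were curated from the Consortium for Functional Glycomics database, 3228 in total, and kept only where the protein sequence was available. Binding is expressed as a within-array Z-score. This score was averaged across arrays of the same protein sequence at different concentrations or buffers and across linkers, and negative values can be read as non-binding.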
# [2] = target: Fuc(a1-2)Gal(b1-3)GalNAc
# How it was run: as §1
# [3] = target: Fuc(a1-2)Gal(b1-3)GalNAc(b1-3)Gal
# How it was run: as §1
# [4] = target: Fuc(a1-2)Gal(b1-3)GalNAc(b1-3)Gal(a1-4)Gal(b1-4)Glc
# How it was run: as §1
# [5] = target: Fuc(a1-2)Gal(b1-3)GalNAc(b1-3)Gal(b1-4)Glc
# How it was run: as §1
# [6] = target: Fuc(a1-2)Gal(b1-3)GalNAc(b1-4)[Neu5Ac(a2-3)]Gal(b1-4)Glc
# How it was run: as §1
# [7] = target: Fuc(a1-2)Gal(b1-3)[Fuc(a1-4)]GlcNAc
# How it was run: as §1
# [8] = target: Fuc(a1-2)Gal(b1-4)Glc
# How it was run: as §1
# [9] = target: Fuc(a1-2)Gal(b1-4)GlcNAc
# How it was run: as §1
# [10] = target: Fuc(a1-2)Gal(b1-4)GlcNAc(b1-3)Gal(b1-4)GlcNAc
# How it was run: as §1
# [11] = target: Fuc(a1-2)Gal(b1-4)GlcNAc(b1-3)Gal(b1-4)GlcNAc(b1-3)Gal(b1-4)GlcNAc
# How it was run: as §1
# [12] = target: Fuc(a1-2)Gal(b1-4)[Fuc(a1-3)]GalNAc(b1-3)Gal(b1-4)[Fuc(a1-3)]GlcNAc
# How it was run: as §1
# [13] = target: Fuc(a1-2)Gal(b1-4)[Fuc(a1-3)]GalNAc(b1-3)Gal(b1-4)[Fuc(a1-3)]GlcNAc(b1-3)Gal(b1-4)[Fuc(a1-3)]GalNAc
# How it was run: as §1
# [14] = target: Fuc(a1-2)Gal(b1-4)[Fuc(a1-3)]GlcNAc
# How it was run: as §1
# [15] = target: Fuc(a1-2)GlcNAc
# How it was run: as §1
# [16] = target: Fuc(a1-2)[Gal(a1-3)]Gal
# How it was run: as §1
# [17] = target: Fuc(a1-2)[Gal(a1-3)]Gal(b1-3)GlcNAc
# How it was run: as §1
# [18] = target: Fuc(a1-2)[Gal(a1-3)]Gal(b1-4)Glc
# How it was run: as §1
# [19] = target: Fuc(a1-2)[Gal(a1-3)]Gal(b1-4)GlcNAc
# How it was run: as §1
# [20] = target: Fuc(a1-2)[Gal(a1-3)]Gal(b1-4)[Fuc(a1-3)]GlcNAc
# How it was run: as §1
# [21] = target: Fuc(a1-2)[Gal(a1-4)]Gal(b1-4)GalNAc
# How it was run: as §1
# [22] = target: Fuc(a1-2)[GalNAc(a1-3)]Gal
# How it was run: as §1
# [23] = target: Fuc(a1-2)[GalNAc(a1-3)]Gal(b1-3)GlcNAc
# How it was run: as §1
# [24] = target: Fuc(a1-2)[GalNAc(a1-3)]Gal(b1-4)Glc
# How it was run: as §1
# [25] = target: Fuc(a1-2)[GalNAc(a1-3)]Gal(b1-4)GlcNAc
# How it was run: as §1
# [26] = target: Fuc(a1-2)[GalNAc(a1-3)]Gal(b1-4)[Fuc(a1-3)]GlcNAc
# How it was run: as §1
# [27] = target: Fuc(a1-2)[GalNAc(a1-4)]Gal(b1-4)GlcNAc
# How it was run: as §1
# [28] = target: Fuc(a1-3)GlcNAc
# How it was run: as §1
# [29] = target: Fuc(a1-3)[Gal(b1-4)]GlcNAc
# How it was run: as §1
# [30] = target: Fuc(a1-3)[Gal(b1-4)]GlcNAc(b1-4)Gal(b1-4)[Fuc(a1-3)]GlcNAc
# How it was run: as §1
# [31] = target: Fuc(a1-3)[Gal(b1-4)]GlcNAc(b1-4)Gal(b1-4)[Fuc(a1-3)]GlcNAc(b1-4)Gal(b1-4)[Fuc(a1-3)]GlcNAc
# How it was run: as §1
# [32] = target: Fuc(a1-3)[Gal3S(b1-4)]GlcNAc
# How it was run: as §1
# [33] = target: Fuc(a1-3)[GalNAc(b1-4)]Gal(b1-4)GlcNAc
# How it was run: as §1
# [34] = target: Fuc(a1-4)GlcNAc
# How it was run: as §1
# [35] = target: Fuc(b1-3)GlcNAc
# How it was run: as §1
# [36] = target: Gal(a1-2)Gal
# How it was run: as §1
# [37] = target: Gal(a1-3)Gal
# How it was run: as §1
# [38] = target: Gal(a1-3)Gal(b1-3)Glc
# How it was run: as §1
# [39] = target: Gal(a1-3)Gal(b1-3)GlcNAc
# How it was run: as §1
# [40] = target: Gal(a1-3)Gal(b1-4)GlcNAc
# How it was run: as §1
# [41] = target: Gal(a1-3)Gal(b1-4)[Fuc(a1-3)]GalNAc
# How it was run: as §1
# [42] = target: Gal(a1-3)GlcNAc
# How it was run: as §1
# [43] = target: Gal(a1-3)[Gal(a1-4)]Gal(b1-4)GlcNAc
# How it was run: as §1
# [44] = target: Gal(a1-4)Gal(b1-4)Gal
# How it was run: as §1
# [45] = target: Gal(a1-4)Gal(b1-4)GalNAc
# How it was run: as §1
binder,measurement,setting,value
B1,glycan array binding signal (z-score),[1],0.016
same,glycan array binding signal (z-score),[2],-0.236
same,glycan array binding signal (z-score),[3],-0.303
same,glycan array binding signal (z-score),[4],-0.385
same,glycan array binding signal (z-score),[5],-0.292
same,glycan array binding signal (z-score),[6],-0.223
same,glycan array binding signal (z-score),[7],-0.04
same,glycan array binding signal (z-score),[8],-0.488
same,glycan array binding signal (z-score),[9],-0.496
same,glycan array binding signal (z-score),[10],-0.004
same,glycan array binding signal (z-score),[11],-0.311
same,glycan array binding signal (z-score),[12],-0.246
same,glycan array binding signal (z-score),[13],-0.206
same,glycan array binding signal (z-score),[14],-0.384
same,glycan array binding signal (z-score),[15],-0.464
same,glycan array binding signal (z-score),[16],-0.383
same,glycan array binding signal (z-score),[17],-0.211
same,glycan array binding signal (z-score),[18],-0.444
same,glycan array binding signal (z-score),[19],-0.3
same,glycan array binding signal (z-score),[20],-0.413
same,glycan array binding signal (z-score),[21],-0.472
same,glycan array binding signal (z-score),[22],-0.309
same,glycan array binding signal (z-score),[23],-0.442
same,glycan array binding signal (z-score),[24],-0.341
same,glycan array binding signal (z-score),[25],-0.269
same,glycan array binding signal (z-score),[26],-0.324
same,glycan array binding signal (z-score),[27],-0.433
same,glycan array binding signal (z-score),[28],2.9
same,glycan array binding signal (z-score),[29],-0.398
same,glycan array binding signal (z-score),[30],-0.39
same,glycan array binding signal (z-score),[31],-0.45
same,glycan array binding signal (z-score),[32],-0.376
same,glycan array binding signal (z-score),[33],-0.425
same,glycan array binding signal (z-score),[34],-0.341
same,glycan array binding signal (z-score),[35],-0.461
same,glycan array binding signal (z-score),[36],-0.439
same,glycan array binding signal (z-score),[37],-0.295
same,glycan array binding signal (z-score),[38],-0.425
same,glycan array binding signal (z-score),[39],-0.403
same,glycan array binding signal (z-score),[40],-0.418
same,glycan array binding signal (z-score),[41],-0.425
same,glycan array binding signal (z-score),[42],-0.477
same,glycan array binding signal (z-score),[43],-0.393
same,glycan array binding signal (z-score),[44],-0.086
same,glycan array binding signal (z-score),[45],-0.309
